# The campaign covered roughly 110,000 compounds. About 230 (0.21%) showed an effect of 50% or more. The list shows a part of the results.
# Target: DPAP1 (Plasmodium falciparum, UniProt Q8IIJ9)
# Assay: primary screen, percent inhibition; read by cleavage of a fluorogenic dipeptide substrate; higher = more effect of the substance
# Set-up: species or system P. falciparum D10 trophozoite lysates; single well
# 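Note: 30 min substrate incubation versus DMSO and 10 µM JCP410 controls.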
# DPAP1, sequence (Q8IIJ9 whole entry, looked up): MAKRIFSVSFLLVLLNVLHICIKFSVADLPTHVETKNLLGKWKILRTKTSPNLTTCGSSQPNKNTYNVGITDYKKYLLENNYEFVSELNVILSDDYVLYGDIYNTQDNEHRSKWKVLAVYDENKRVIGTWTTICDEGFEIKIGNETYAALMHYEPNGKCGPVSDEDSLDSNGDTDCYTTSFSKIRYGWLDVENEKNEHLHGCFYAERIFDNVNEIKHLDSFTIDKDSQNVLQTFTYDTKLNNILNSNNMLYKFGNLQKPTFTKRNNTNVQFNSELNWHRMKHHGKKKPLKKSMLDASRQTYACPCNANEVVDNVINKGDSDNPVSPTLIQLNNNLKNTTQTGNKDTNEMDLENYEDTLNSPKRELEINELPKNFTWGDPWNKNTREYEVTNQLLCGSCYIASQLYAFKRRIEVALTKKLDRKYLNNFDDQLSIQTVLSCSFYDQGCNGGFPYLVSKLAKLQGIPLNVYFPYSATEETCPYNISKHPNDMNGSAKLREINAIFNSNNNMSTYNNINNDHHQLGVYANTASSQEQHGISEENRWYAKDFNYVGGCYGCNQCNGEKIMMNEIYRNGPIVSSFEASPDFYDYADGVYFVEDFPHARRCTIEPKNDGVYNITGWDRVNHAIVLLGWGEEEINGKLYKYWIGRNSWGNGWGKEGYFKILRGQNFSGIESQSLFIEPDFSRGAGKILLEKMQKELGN
row,SMILES,% Inhibition @ 10 uM
1,Cc1ccc2cc3cc(C(=O)NCCC(C)C)sc3nc2c1,-1.27%
2,Cc1cccc(OCC(=O)N2CCN(C(=O)c3ccco3)CC2)c1,1.26%
3,COc1ccc2c(c1)CCc1c(C(=O)NCCCN3CCOCC3)noc1-2,-7.85%
4,CC(C)NC(=S)N1CCC(Cc2ccccc2)CC1,4.19%
5,COc1ccc(-n2c(C)nc3cc(C(=O)NCCC4=CCCCC4)ccc32)cc1,-7.66%
6,CCN1C(=O)c2cccc3c(S(=O)(=O)N4CCCC4C(=O)O)ccc1c23 (stereo not drawn),0.583%
7,O=S(=O)(NCc1ccccc1)c1ccc2c(c1)OCCO2,16.1%
8,COc1ccc(C2C=C(c3ccc(OC(F)F)cc3)Nc3nnnn32)cc1 (stereo not drawn),3.12%
9,COc1ccc(-c2nnc(-c3ccc(OC)cc3)o2)cc1,-0.216%
10,CS(=O)(=O)c1ccc(S(=O)(=O)C(F)(F)F)cc1,-1.05%
11,Cc1cc2c(cc3c(=O)n(CC(=O)NCc4ccccc4Cl)ncn32)s1,1.68%
12,COC(=O)C1=C(O)/C(=C\c2ccc(C(=O)O)cc2)N=C1C,0.131%
13,CC1=C(C(=O)Nc2ccc(C)cn2)C(c2cnn(C)c2C)C2=C(O)CC(c3ccccc3)CC2=N1 (stereo not drawn),-0.968%
14,CC(C)C1NCCc2c1sc1ccccc21 (stereo not drawn),5.58%
15,COc1ccc(C(=O)N(CCCN(C)C)c2nc3c(C)cccc3s2)cc1,-4.61%
16,CC1CCN(S(=O)(=O)c2ccc3c(ccn3CC(=O)NCCCc3ccccc3)c2)CC1,-2.37%
17,O=C(Cn1nnc(-c2ccccc2Cl)n1)NCCCN1CCOCC1,7.16%
18,COc1ccc(C(=O)Nc2ccc(S(=O)(=O)Nc3ccc(Cl)c(Cl)c3)cc2)cc1,-4.59%
19,CCOCCCNC(=O)CCn1cnc2onc(-c3ccc(F)cc3)c2c1=O,0.358%
20,COc1ccc(C(=O)C2=C(O)C(=O)N(CCc3c[nH]c4ccccc34)C2c2ccc(O)c(OC)c2)cc1 (stereo not drawn),2.62%
21,CC1=C(C#N)C(=O)N(CCCO)C(=O)/C1=C\c1ccc(-c2ccc(Br)cc2)o1,-1.26%

row,SMILES,% Inhibition @ 10 uM
1,Cc1ccc(C(=O)Nc2cccc(NC(=O)c3ccc(C)cc3)c2)cc1,-1.36%
2,OCc1ccc(C#Cc2ccccc2)o1,-0.415%
3,COc1cc(CN2CCN(Cc3ccco3)CC2)cc(OC)c1,9.11%
4,O=C(Nc1cccc([N+](=O)[O-])c1)c1c(F)cccc1F,-0.546%
5,Cc1nc2c(C(=O)NCCN(C)C)cnn2c(C)c1Cc1c(F)cccc1Cl,-4.29%
6,O=C(c1ccccc1F)N1N=C(c2ccccc2)CC1(O)C(F)(F)F (stereo not drawn),1.02%
7,C=CCc1ccccc1OCCN1CCN(C)CC1,-0.0735%
8,CC(C)Cc1nc2sc3c(c2c(=O)o1)CCCCC3,3.59%
9,CCOc1cc(CN2CCN(c3ccc(OC)cc3)CC2)ccc1OC,-1.77%
10,COc1ccc2[nH]c(C)c(CCNC(=O)c3cccs3)c2c1,-1.24%
11,CCCCCO/C(O)=C1/C(C)=Nc2ncnn2C1c1ccc(OC)cc1 (stereo not drawn),-2.41%
12,O=C(Nc1ccc(Cl)cc1)NC1CCCCC1NC(=O)Nc1ccc(Cl)cc1 (stereo not drawn),0.528%
13,CC(CCc1ccccc1)NC1CCN(Cc2ccccc2)CC1 (stereo not drawn),-2.56%
14,COc1cc2c(cc1OC)CN(CC1CC=CCC1)CC2 (stereo not drawn),1.74%
15,COc1ccc(S(=O)(=O)c2nnn(-c3ccccc3Cl)c2N)cc1,-3.34%
16,O=C(CN1CCCCC1)c1c[nH]c2ccccc12,2.99%
17,Cc1cc(Cl)ccc1OCC(=O)Nc1ccccc1C(=O)O,-1.88%
18,O=C(N1CCN(c2ccc([N+](=O)[O-])cc2)CC1)C12CC3CC(CC(C3)C1)C2,-2.55%
19,COc1ccccc1C1/C(=C(\O)OC(C)C)C(C)=Nc2nnnn21 (stereo not drawn),-3.53%
20,Cn1c2ccccc2c2cc(C(O)(CC(=O)c3ccccc3)C(F)(F)F)ccc21 (stereo not drawn),-6.27%
21,CC(C)(C)Nc1ncnc2c1cnn2Cc1ccccc1,4.66%

row,SMILES,% Inhibition @ 10 uM
1,Cc1ccc(N2C(=O)C(NC(=O)c3ccccc3)(C(F)(F)F)C3=C2CC(C)(C)CC3=O)cc1 (stereo not drawn),-10.7%
2,CCOc1cc2c(cc1OCC)C(c1cccc(OC)c1OC)NCC2 (stereo not drawn),2.49%
3,Cc1c(C(=O)NCc2ccccc2)oc2c1C(=O)CCC2,-3.34%
4,CCOC(=O)C1=C(N)c2ccccc2CC1C(C)C (stereo not drawn),4.42%
5,CCCCn1c(CCC(=O)O)ccc1-c1ccc(C)cc1,-0.0626%
6,CCC(C)NC(=O)c1cc2sc(Cl)cc2n1CC (stereo not drawn),-6.68%
7,O=C(NC(=S)N1CCOCC1)c1ccccc1C(=O)OCC(F)(F)F,-1.5%
8,C=CCNc1cc(=O)n(Cc2ccccc2)c(=O)[nH]1,2.4%
9,O=C1CSC(c2ccc(Br)cc2)N1c1nc2ccccc2s1 (stereo not drawn),-0.222%
10,CCn1c(CN2CC(C)OC(C)C2)nc2c1c(=O)n(C)c(=O)n2C (stereo not drawn),-0.499%
11,Cc1sc(NC(=O)c2ccc(COc3ccc(F)cc3)o2)nc1-c1ccccc1,3.72%
12,Cc1ccc2c(c1)cc1c(=O)n(CC(=O)NCc3ccc(F)cc3)nc(C)n12,3.29%
13,CCC(C(=O)Nc1c2c(nn1-c1ccccc1C)CS(=O)(=O)C2)c1ccccc1 (stereo not drawn),-1.75%
14,NC(=O)c1c(NC(=O)c2cc(=O)c3cc(Cl)ccc3o2)sc2c1CCCC2,-3.24%
15,CCOC(=O)c1c(C)oc2ncnc(N3CCCC3)c12,6.36%
16,O=C(NCc1ccc2c(c1)OCO2)C(=O)NCC(c1cccnc1)N1CCOCC1 (stereo not drawn),-5.6%
17,Cn1c(CNC23CC4CC(CC(C4)C2)C3)c(-c2ccccc2)c2cc([N+](=O)[O-])ccc21,1.24%
18,Cc1cc(=O)n2nc(N3CCCC(C(=O)NC(C)C45CC6CC(CC(C6)C4)C5)C3)sc2n1 (stereo not drawn),-0.281%
19,CC(C)(C)Nc1nc(Oc2ccc(CC(N)=O)nn2)nc(N2CCOCC2)n1,-1.31%
20,CCOc1cc(-c2cc(N)n(S(=O)(=O)c3ccc(F)c(C)c3)n2)cc(OCC)c1OCC,7.21%
21,CC(C)Nc1nc(N2CCOCC2)nc(N(c2ccccc2)c2ccccc2)n1,5.77%

# From publication PMC6919601, “Identification of Plasmodium dipeptidyl aminopeptidase allosteric inhibitors by high throughput screening” (PLoS ONE, 2019)
